Measurements: publication PMC4336329 (PLoS ONE, 2015)
In all, about 310,000 compounds went through this assay and about 2,200 (0.71%) showed an effect of 50% or more. The effect is printed as a negative number. Some of the results follow.

molecular target: human ether-à-go-go-related gene (hERG) potassium channel (human, UniProt Q12809); test: primary screen, population patch clamp on CHO cells stably expressing hERG
Sequence (Q12809 whole entry, looked up): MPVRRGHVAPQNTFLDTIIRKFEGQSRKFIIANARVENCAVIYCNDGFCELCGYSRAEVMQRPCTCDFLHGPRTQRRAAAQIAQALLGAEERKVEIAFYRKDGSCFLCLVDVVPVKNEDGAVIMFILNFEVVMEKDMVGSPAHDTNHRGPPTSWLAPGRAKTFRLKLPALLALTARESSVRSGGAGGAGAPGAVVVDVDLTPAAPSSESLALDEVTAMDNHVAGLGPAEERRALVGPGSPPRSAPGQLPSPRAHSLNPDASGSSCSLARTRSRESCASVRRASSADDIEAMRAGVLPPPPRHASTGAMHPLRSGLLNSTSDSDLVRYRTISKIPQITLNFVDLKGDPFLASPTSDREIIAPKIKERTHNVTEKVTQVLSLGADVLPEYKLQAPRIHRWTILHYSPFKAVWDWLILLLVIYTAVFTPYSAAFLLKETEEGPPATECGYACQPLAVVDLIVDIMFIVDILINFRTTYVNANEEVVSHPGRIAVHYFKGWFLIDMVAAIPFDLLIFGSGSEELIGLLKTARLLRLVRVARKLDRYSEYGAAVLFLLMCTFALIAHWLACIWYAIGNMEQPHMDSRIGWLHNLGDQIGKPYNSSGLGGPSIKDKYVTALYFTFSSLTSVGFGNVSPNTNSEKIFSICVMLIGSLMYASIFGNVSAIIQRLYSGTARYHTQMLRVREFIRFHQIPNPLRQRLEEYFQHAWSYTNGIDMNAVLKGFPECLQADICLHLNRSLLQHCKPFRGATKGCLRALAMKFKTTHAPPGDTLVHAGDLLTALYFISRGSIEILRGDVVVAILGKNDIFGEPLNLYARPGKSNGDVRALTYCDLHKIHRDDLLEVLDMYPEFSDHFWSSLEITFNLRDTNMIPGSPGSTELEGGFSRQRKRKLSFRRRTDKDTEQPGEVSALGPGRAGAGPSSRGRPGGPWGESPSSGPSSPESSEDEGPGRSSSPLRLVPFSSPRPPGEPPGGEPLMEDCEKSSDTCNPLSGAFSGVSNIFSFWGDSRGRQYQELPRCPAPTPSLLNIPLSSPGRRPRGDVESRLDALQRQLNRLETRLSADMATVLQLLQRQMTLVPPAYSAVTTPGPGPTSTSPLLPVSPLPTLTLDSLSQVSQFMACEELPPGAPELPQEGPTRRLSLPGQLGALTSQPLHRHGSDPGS

**Q.** With `CCCCc1nc(SCC(=O)N2CCOCC2)c2c(=O)n(C)c(=O)n(C)c2n1` as the molecule, how does the “hERG current change (%, negative = inhibition) at 1uM” value read?
**A.** The value was 5.14%.

**Q.** `CCC(C)NC(=O)CSc1ncccc1C(=O)O` (stereo not drawn) was tested. Which “hERG current change (%, negative = inhibition) at 1uM” value did it give?
**A.** The value was 7.29%.

**Q.** Which “hERG current change (%, negative = inhibition) at 1uM” value does the source give for `CCOc1[nH]n(-c2ccccc2)c(=O)c1C=Nc1ccc(Cl)cc1` here?
**A.** Its value is 10.8%.

**Q.** With `COc1cccc(/C=N/NC(=O)c2nnn(-c3nonc3N)c2CN(C)c2ccccc2)c1` as the molecule, how does the “hERG current change (%, negative = inhibition) at 1uM” value read?
**A.** Its value is 12.9%.

**Q.** How did the “hERG current change (%, negative = inhibition) at 1uM” value turn out when `O=C(Nc1ccc(F)cc1)N1CCN(C/C=C/c2ccccc2)CC1` was run?
**A.** The value was -5.77%.

**Q.** `CCOC(=O)COc1ccc2c(c1)c(C(C)=O)c(C)n2-c1ccccc1` was tested. Which “hERG current change (%, negative = inhibition) at 1uM” value did it give?
**A.** The value was 12.9%.

**Q.** How did the “hERG current change (%, negative = inhibition) at 1uM” value turn out when `O=C(COC(=O)Cc1ccccc1)NC(=O)NC1CCCCC1` was run?
**A.** The value was 10.2%.

**Q.** `CCOC(=O)Cn1ccc(NC(=O)COc2ccc(F)cc2F)n1` was tested. Which “hERG current change (%, negative = inhibition) at 1uM” value did it give?
**A.** Its value is 7.27%.

**Q.** How did the “hERG current change (%, negative = inhibition) at 1uM” value turn out when `CCOC(=O)c1c(NC(=O)CSc2nnnn2-c2ccc3c(c2)OCO3)sc(C)c1C` was run?
**A.** Its value is 15.1%.

**Q.** How did the “hERG current change (%, negative = inhibition) at 1uM” value turn out when `CCOCCCNC(=O)c1ccc2c(c1)N(Cc1ccccc1)C(=O)CS2=O` (stereo not drawn) was run?
**A.** Its value is 12.5%.

**Q.** Which “hERG current change (%, negative = inhibition) at 1uM” value does the source give for `O=C(CCS(=O)(=O)c1ccc2c(c1)NC(=O)CO2)NCCc1ccccc1` here?
**A.** The value was 9.02%.

**Q.** With `CC1=CSC2=NS(=O)(=O)CCN12` as the molecule, how does the “hERG current change (%, negative = inhibition) at 1uM” value read?
**A.** Its value is 13.7%.

**Q.** How did the “hERG current change (%, negative = inhibition) at 1uM” value turn out when `CCN(CC)CCNC(=O)Cn1nc(Cc2cccnc2)c2ccccc2c1=O` was run?
**A.** The value was 5.82%.

**Q.** How did the “hERG current change (%, negative = inhibition) at 1uM” value turn out when `Cc1ccccc1-n1c([C@@H]2C[C@H]2c2ccccc2)n[nH]c1=S` was run?
**A.** Its value is 17.5%.

**Q.** Which “hERG current change (%, negative = inhibition) at 1uM” value does the source give for `O=Cc1c(NC2CCCCC2)c2ccccc2[nH]c1=O` here?
**A.** The value was 6.77%.

**Q.** For `CN(C)CCNc1oc(-c2ccccc2Cl)nc1S(=O)(=O)c1ccccc1`, which “hERG current change (%, negative = inhibition) at 1uM” value is on record?
**A.** The value was 6.86%.

**Q.** Which “hERG current change (%, negative = inhibition) at 1uM” value does the source give for `CC(C)(C)n1nnnc1C(c1ccccn1)N(Cc1ccccc1)Cc1ccc(Cl)cc1` (stereo not drawn) here?
**A.** Its value is 16.8%.

**Q.** How did the “hERG current change (%, negative = inhibition) at 1uM” value turn out when `CC1CCN(C(=O)/C(=C\c2ccccc2)NC(=O)c2ccccc2)CC1` was run?
**A.** The value was 10.2%.

**Q.** `COc1ccc(NC(=O)c2ccco2)cc1N` was tested. Which “hERG current change (%, negative = inhibition) at 1uM” value did it give?
**A.** The value was 7.59%.

**Q.** With `CC(=O)c1ccc(OCC(O)CN2CCCC(C)C2)cc1.Cl` (stereo not drawn) as the molecule, how does the “hERG current change (%, negative = inhibition) at 1uM” value read?
**A.** The value was 5.91%.

**Q.** How did the “hERG current change (%, negative = inhibition) at 1uM” value turn out when `NC(=O)c1ccc2c(=O)n3c(-c4cccs4)csc3nc2c1` was run?
**A.** Its value is 16.1%.

**Q.** For `COc1ccc2ccccc2c1/C=N/NC(=S)NCCN1CCOCC1`, which “hERG current change (%, negative = inhibition) at 1uM” value is on record?
**A.** The value was 7.45%.

**Q.** Which “hERG current change (%, negative = inhibition) at 1uM” value does the source give for `CCN(CC)C(=O)Oc1ccc(NC(C)=O)cc1` here?
**A.** The value was 21.9%.

**Q.** With `CCc1cccc(CC)c1NC(=O)COC(=O)C1(C)CC1(Cl)Cl` (stereo not drawn) as the molecule, how does the “hERG current change (%, negative = inhibition) at 1uM” value read?
**A.** Its value is 23.5%.

**Q.** With `Cc1ccc(-c2noc(CCC(=O)Nc3ccc(C)cn3)n2)cc1` as the molecule, how does the “hERG current change (%, negative = inhibition) at 1uM” value read?
**A.** The value was 8.99%.

**Q.** For `C=CCn1c(SCC(=O)c2ccccc2)nnc1-c1ccc2c(c1)OCO2`, which “hERG current change (%, negative = inhibition) at 1uM” value is on record?
**A.** The value was 1.56%.

**Q.** How did the “hERG current change (%, negative = inhibition) at 1uM” value turn out when `CC(CN1CCOCC1)OC(=O)c1ccc(Br)cc1.Cl` (stereo not drawn) was run?
**A.** Its value is -0.655%.

**Q.** How did the “hERG current change (%, negative = inhibition) at 1uM” value turn out when `COc1ccccc1N=c1c2c([N+](=O)[O-])cc([N+](=O)[O-])cc2n(O)n1-c1ccccc1OC` was run?
**A.** The value was 9.41%.

**Q.** How did the “hERG current change (%, negative = inhibition) at 1uM” value turn out when `COc1ccc(C2CC(c3ccccc3)=NN2C(=O)CN2N=NC3C(=O)N(c4cccc(F)c4)C(=O)C32)cc1` (stereo not drawn) was run?
**A.** Its value is 17.8%.

**Q.** How did the “hERG current change (%, negative = inhibition) at 1uM” value turn out when `Cc1nc(S(=O)(=O)N(C)c2ccccc2)c(C#N)c(C)c1Cl` was run?
**A.** Its value is 12.9%.

**Q.** Which “hERG current change (%, negative = inhibition) at 1uM” value does the source give for `Cc1cc(C)n(CCC(=O)Nc2ccc(-c3ccno3)cc2)n1` here?
**A.** The value was 8.96%.

**Q.** `CCCCN=C(N)/C(C(=O)OCC)=C(\O)c1ccc(OC)cc1` was tested. Which “hERG current change (%, negative = inhibition) at 1uM” value did it give?
**A.** The value was -2.55%.

**Q.** Which “hERG current change (%, negative = inhibition) at 1uM” value does the source give for `Cc1ccc2nc(-c3ccc(SCC(=O)Nc4ccc5c(c4)OCCO5)nc3)[nH]c2c1` here?
**A.** The value was 5.88%.

**Q.** Which “hERG current change (%, negative = inhibition) at 1uM” value does the source give for `O=C(Nc1ccc(N2CCN(C(=O)c3ccccc3)CC2)cc1)c1cccs1` here?
**A.** Its value is -3%.

**Q.** How did the “hERG current change (%, negative = inhibition) at 1uM” value turn out when `O=C(Cn1nnc(-c2ccc(CN3CCOCC3)cc2)n1)N1CCCc2ccccc21` was run?
**A.** Its value is -13.3%.

**Q.** With `O=C(CCC1CCCN(C(=O)c2cncs2)C1)NCc1ccc(F)c(F)c1` (stereo not drawn) as the molecule, how does the “hERG current change (%, negative = inhibition) at 1uM” value read?
**A.** The value was 8.79%.

**Q.** For `CCOc1cc(C(=O)OCC(=O)NCc2ccco2)cc(OCC)c1OCC`, which “hERG current change (%, negative = inhibition) at 1uM” value is on record?
**A.** Its value is 8.76%.

**Q.** With `CCc1sc(C(C2C(=O)CC(C)(C)CC2=O)C2C(=O)CC(C)(C)CC2=O)cc1[N+](=O)[O-]` as the molecule, how does the “hERG current change (%, negative = inhibition) at 1uM” value read?
**A.** Its value is 8.06%.

**Q.** Which “hERG current change (%, negative = inhibition) at 1uM” value does the source give for `Cc1ccc(S(=O)(=O)N2CCC(=O)N(CCOCc3cccc(F)c3)CC2)cc1` here?
**A.** Its value is 7.15%.

**Q.** `CCCCn1c(CCC)nc([N+](=O)[O-])c1Sc1ccc(Cl)cn1` was tested. Which “hERG current change (%, negative = inhibition) at 1uM” value did it give?
**A.** Its value is -14.5%.

**Q.** Which “hERG current change (%, negative = inhibition) at 1uM” value does the source give for `CCc1nc2ccccc2[nH]1` here?
**A.** The value was -3.04%.

**Q.** `CCCc1cc(=O)n2nc(N3CCC(C(=O)N4CCN(c5cccc(OC)c5)CC4)CC3)sc2n1` was tested. Which “hERG current change (%, negative = inhibition) at 1uM” value did it give?
**A.** Its value is -12.3%.

**Q.** How did the “hERG current change (%, negative = inhibition) at 1uM” value turn out when `Cc1ccc(NC(=O)C2CCCCC2C(=O)O)cc1Cl` (stereo not drawn) was run?
**A.** Its value is 2.36%.

**Q.** For `Cc1cc(C)n(CC(=O)NC2CCCCC2C)c(=O)c1C#N` (stereo not drawn), which “hERG current change (%, negative = inhibition) at 1uM” value is on record?
**A.** Its value is 5.52%.

**Q.** With `COc1ccc(N/C(N)=N/c2nc(C)c(Cc3ccccc3)c(=O)[nH]2)cc1` as the molecule, how does the “hERG current change (%, negative = inhibition) at 1uM” value read?
**A.** Its value is 16.3%.
